# From the supplement of paper PMC8728848
# The list shows a part of the results.
# B1: Als3-N (Candida albicans) (protein)
# chain: KTITGVFNSFNSLTWSNAATYNYKGPGTPTWNAVLGWSLDGTSASPGDTFTLNMPCVFKFTTSQTSVDLTAHGVKYATCQFQAGEEFMTFSTLTCTVSNTLTPSIKALGTVTLPLAFNVGGTGSSVDLEDSKCFTAGTNTVTFNDGGKKISINVDFERSNVDPKGYLTDSRVIPSLNKVSTLFVAPQCANGYTSGTMGFANTYGDVQIDCSNIHVGITKGLNDWNYPVSSESFSYTKTCSSNGIFITYKNVPAGYRPFVDAYISATDVNSYTLSYANEYTCAGGYWQRAPFTLRWTGYRNSDAGSNGIVIVATTRTVTDSTTAVTTLPFDPNRDKTKTIEILKPIPTTTITTSYVGVTTSYLTKTAPIGETATVIVDIPYHTTTTVTSKWTGTITSTTTHTNPTDSIDTVIVQVP
# How the values were obtained:
# Experiment in all cases: glycan array binding signal (z-score within array); higher = stronger binding
# Conditions in all cases: glycan notation: IUPAC condensed, linker removed
# [1] = target: GlcNAc(b1-4)GlcNAc(b1-4)GlcNAc(b1-4)GlcNAc(b1-4)GlcNAc
# How it was run: (§1)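 The binding signal is a Z-score computed within each array and averaged over linkers. Arrays of the same protein sequence at different concentrations or buffers were also averaged together. Data originate from 3228 arrays in the Consortium for Functional Glycomics database, kept only where the protein sequence was available.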
# [2] = target: GlcNAc(b1-4)GlcNAc(b1-4)GlcNAc(b1-4)GlcNAc(b1-4)GlcNAc(b1-4)GlcNAc
# How it was run: as §1
# [3] = target: GlcNAc(b1-4)[GlcNAc(b1-6)]GalNAc
# How it was run: as §1
# [4] = target: GlcNAc(b1-6)Gal(b1-4)GlcNAc
# How it was run: as §1
# GlcNAc(b1-6)GalNAc = target: GlcNAc(b1-6)GalNAc
# How it was run: as §1
# [5] = target: GlcNAc6S(b1-3)Gal(b1-4)GlcNAc
# How it was run: as §1
# Kdn(a2-3)Gal(b1-3)GalNAc = target: Kdn(a2-3)Gal(b1-3)GalNAc
# How it was run: as §1
# Kdn(a2-3)Gal(b1-3)GlcNAc = target: Kdn(a2-3)Gal(b1-3)GlcNAc
# How it was run: as §1
# Kdn(a2-3)Gal(b1-4)Glc = target: Kdn(a2-3)Gal(b1-4)Glc
# How it was run: as §1
# Kdn(a2-3)Gal(b1-4)GlcNAc = target: Kdn(a2-3)Gal(b1-4)GlcNAc
# How it was run: as §1
# [6] = target: Kdn(a2-3)Gal(b1-4)[Fuc(a1-3)]GlcNAc
# How it was run: as §1
# Kdn(a2-6)Gal(b1-4)GlcNAc = target: Kdn(a2-6)Gal(b1-4)GlcNAc
# How it was run: as §1
# [7] = target: Man(a1-2)Man(a1-2)Man(a1-3)Man
# How it was run: as §1
# [8] = target: Man(a1-2)Man(a1-2)Man(a1-6)[Man(a1-3)]Man
# How it was run: as §1
# Man(a1-2)Man(a1-3)Man = target: Man(a1-2)Man(a1-3)Man
# How it was run: as §1
# [9] = target: Man(a1-2)Man(a1-3)[Man(a1-2)Man(a1-6)]Man
# How it was run: as §1
# [10] = target: Man(a1-2)Man(a1-3)[Man(a1-2)Man(a1-6)]Man(a1-6)[Man(a1-2)Man(a1-2)Man(a1-3)]Man
# How it was run: as §1
# [11] = target: Man(a1-2)Man(a1-3)[Man(a1-2)Man(a1-6)]Man(a1-6)[Man(a1-2)Man(a1-2)Man(a1-3)]Man(b1-4)GlcNAc(b1-4)GlcNAc
# How it was run: as §1
# [12] = target: Man(a1-2)Man(a1-3)[Man(a1-6)]Man(a1-6)[Man(a1-2)Man(a1-3)]Man(b1-4)GlcNAc(b1-4)GlcNAc
# How it was run: as §1
# [13] = target: Man(a1-2)Man(a1-6)[Man(a1-3)]Man(a1-6)[Man(a1-2)Man(a1-2)Man(a1-3)]Man
# How it was run: as §1
# [14] = target: Man(a1-2)Man(a1-6)[Man(a1-3)]Man(a1-6)[Man(a1-2)Man(a1-2)Man(a1-3)]Man(b1-4)GlcNAc(b1-4)GlcNAc
# How it was run: as §1
# Man(a1-3)[Man(a1-6)]Man = target: Man(a1-3)[Man(a1-6)]Man
# How it was run: as §1
# [15] = target: Man(a1-3)[Man(a1-6)]Man(a1-6)[Man(a1-2)Man(a1-3)]Man(b1-4)GlcNAc(b1-4)GlcNAc
# How it was run: as §1
# [16] = target: Man(a1-3)[Man(a1-6)]Man(a1-6)[Man(a1-3)]Man
# How it was run: as §1
# [17] = target: Man(a1-3)[Man(a1-6)]Man(a1-6)[Man(a1-3)]Man(b1-4)GlcNAc(b1-4)GlcNAc
# How it was run: as §1
# [18] = target: Man(a1-3)[Man(a1-6)]Man(b1-4)GlcNAc(b1-4)GlcNAc
# How it was run: as §1
# [19] = target: Man(a1-3)[Man(a1-6)]Man(b1-4)GlcNAc(b1-4)[Fuc(a1-6)]GlcNAc
# How it was run: as §1
# Man(a1-6)Man = target: Man(a1-6)Man
# How it was run: as §1
# Man(b1-4)GlcNAc = target: Man(b1-4)GlcNAc
# How it was run: as §1
# MurNAc(b1-4)GlcNAc = target: MurNAc(b1-4)GlcNAc
# How it was run: as §1
# Neu5Ac(a2-3)Gal = target: Neu5Ac(a2-3)Gal
# How it was run: as §1
# [20] = target: Neu5Ac(a2-3)Gal(b1-3)GalNAc
# How it was run: as §1
# [21] = target: Neu5Ac(a2-3)Gal(b1-3)GalNAc(b1-3)Gal(a1-4)Gal(b1-4)Glc
# How it was run: as §1
# [22] = target: Neu5Ac(a2-3)Gal(b1-3)GalNAc(b1-4)[Neu5Ac(a2-3)]Gal(b1-4)Glc
# How it was run: as §1
# [23] = target: Neu5Ac(a2-3)Gal(b1-3)GalNAc(b1-4)[Neu5Ac(a2-8)Neu5Ac(a2-3)]Gal(b1-4)Glc
# How it was run: as §1
# [24] = target: Neu5Ac(a2-3)Gal(b1-3)GalNAc6S
# How it was run: as §1
# [25] = target: Neu5Ac(a2-3)Gal(b1-3)GlcNAc
# How it was run: as §1
# [26] = target: Neu5Ac(a2-3)Gal(b1-3)GlcNAc(b1-2)Man
# How it was run: as §1
# [27] = target: Neu5Ac(a2-3)Gal(b1-3)GlcNAc(b1-2)Man(a1-3)[GlcNAc(b1-4)][Neu5Ac(a2-3)Gal(b1-3)GlcNAc(b1-2)Man(a1-6)]Man(b1-4)GlcNAc(b1-4)GlcNAc
# How it was run: as §1
# [28] = target: Neu5Ac(a2-3)Gal(b1-3)GlcNAc(b1-2)Man(a1-3)[Neu5Ac(a2-3)Gal(b1-3)GlcNAc(b1-2)Man(a1-6)]Man(b1-4)GlcNAc(b1-4)GlcNAc
# How it was run: as §1
# [29] = target: Neu5Ac(a2-3)Gal(b1-3)GlcNAc(b1-3)Gal(b1-3)GlcNAc
# How it was run: as §1
# [30] = target: Neu5Ac(a2-3)Gal(b1-3)GlcNAc(b1-3)Gal(b1-4)GlcNAc
# How it was run: as §1
# [31] = target: Neu5Ac(a2-3)Gal(b1-3)GlcNAc(b1-3)GalNAc
# How it was run: as §1
# [32] = target: Neu5Ac(a2-3)Gal(b1-3)GlcNAc(b1-4)Gal(b1-4)Glc
# How it was run: as §1
# [33] = target: Neu5Ac(a2-3)Gal(b1-3)GlcNAc(b1-6)GalNAc
# How it was run: as §1
binder,measurement,setting,value
B1,glycan array binding signal (z-score),[1],-0.219
same,glycan array binding signal (z-score),[2],-0.176
same,glycan array binding signal (z-score),[3],-0.345
same,glycan array binding signal (z-score),[4],-0.196
same,glycan array binding signal (z-score),GlcNAc(b1-6)GalNAc,-0.183
same,glycan array binding signal (z-score),[5],-0.1
same,glycan array binding signal (z-score),Kdn(a2-3)Gal(b1-3)GalNAc,-0.01
same,glycan array binding signal (z-score),Kdn(a2-3)Gal(b1-3)GlcNAc,-0.154
same,glycan array binding signal (z-score),Kdn(a2-3)Gal(b1-4)Glc,-0.274
same,glycan array binding signal (z-score),Kdn(a2-3)Gal(b1-4)GlcNAc,-0.156
same,glycan array binding signal (z-score),[6],-0.144
same,glycan array binding signal (z-score),Kdn(a2-6)Gal(b1-4)GlcNAc,-0.192
same,glycan array binding signal (z-score),[7],-0.063
same,glycan array binding signal (z-score),[8],-0.257
same,glycan array binding signal (z-score),Man(a1-2)Man(a1-3)Man,-0.226
same,glycan array binding signal (z-score),[9],-0.321
same,glycan array binding signal (z-score),[10],-0.326
same,glycan array binding signal (z-score),[11],-0.17
same,glycan array binding signal (z-score),[12],-0.192
same,glycan array binding signal (z-score),[13],-0.361
same,glycan array binding signal (z-score),[14],-0.368
same,glycan array binding signal (z-score),Man(a1-3)[Man(a1-6)]Man,-0.317
same,glycan array binding signal (z-score),[15],-0.233
same,glycan array binding signal (z-score),[16],-0.316
same,glycan array binding signal (z-score),[17],-0.2
same,glycan array binding signal (z-score),[18],-0.176
same,glycan array binding signal (z-score),[19],-0.019
same,glycan array binding signal (z-score),Man(a1-6)Man,-0.169
same,glycan array binding signal (z-score),Man(b1-4)GlcNAc,-0.264
same,glycan array binding signal (z-score),MurNAc(b1-4)GlcNAc,0.037
same,glycan array binding signal (z-score),Neu5Ac(a2-3)Gal,-0.247
same,glycan array binding signal (z-score),[20],-0.06
same,glycan array binding signal (z-score),[21],-0.162
same,glycan array binding signal (z-score),[22],-0.293
same,glycan array binding signal (z-score),[23],-0.235
same,glycan array binding signal (z-score),[24],-0.243
same,glycan array binding signal (z-score),[25],-0.252
same,glycan array binding signal (z-score),[26],-0.29
same,glycan array binding signal (z-score),[27],-0.11
same,glycan array binding signal (z-score),[28],-0.215
same,glycan array binding signal (z-score),[29],-0.275
same,glycan array binding signal (z-score),[30],-0.127
same,glycan array binding signal (z-score),[31],-0.285
same,glycan array binding signal (z-score),[32],-0.308
same,glycan array binding signal (z-score),[33],0.161
